Reference: patent publication US20240209106A1 (BEIGENE SWITZERLAND, published 2024)

Columns and labels:
[1] = target: T1, full-length human CD137 (huCD137) (human, UniProt Q07011 24-255); assay: flow cytometry on Hut78/huCD137 cells, detection with labelled anti-hu IgG Fc [panel B]
T1 construct: On transduced Hut78 cells (Hut78/huCD137), transiently on HEK293 cells, or natively on PBMC/T cells; also called TNFRSF9; 4-1BB

[2] = target: human CD137 ECD-mIgG2a (human); assay: SPR (BIAcore T-200): antibody captured on anti-human IgG (Fc) CM5 chip, human CD137 ECD-mIgG2a as analyte, 1:1 Langmuir fit [panel A]
[3] = target: human CD137 ECD-mIgG2a (human); assay: SPR, Fc-fusion VH captured on anti-human IgG Fc chip, human CD137 ECD-mIgG2a flowed over
[4] = target: human CD137 ECD-mIgG2a (human); assay: SPR, human CD137 ECD-mIgG2a
[5] = target: T1, full-length human CD137 (huCD137); assay: flow cytometry on Hut78/huCD137 cells
T1 sequence (Q07011 24-255 limits assumed): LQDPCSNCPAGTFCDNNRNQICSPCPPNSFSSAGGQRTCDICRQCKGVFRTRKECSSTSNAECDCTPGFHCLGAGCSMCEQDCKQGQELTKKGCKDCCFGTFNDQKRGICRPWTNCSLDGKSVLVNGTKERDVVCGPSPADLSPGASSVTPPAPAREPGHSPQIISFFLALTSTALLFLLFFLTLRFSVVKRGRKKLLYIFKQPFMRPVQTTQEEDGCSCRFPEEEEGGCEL

[6] = target: T2, cyno CD137 ECD-mIgG2a (Monkey (Macaca mulatta), called cyno); assay: SPR, antibody captured on anti-human IgG Fc chip, cyno CD137 ECD-mIgG2a flowed over
T2 construct: also called monkey CD137
T2 chain: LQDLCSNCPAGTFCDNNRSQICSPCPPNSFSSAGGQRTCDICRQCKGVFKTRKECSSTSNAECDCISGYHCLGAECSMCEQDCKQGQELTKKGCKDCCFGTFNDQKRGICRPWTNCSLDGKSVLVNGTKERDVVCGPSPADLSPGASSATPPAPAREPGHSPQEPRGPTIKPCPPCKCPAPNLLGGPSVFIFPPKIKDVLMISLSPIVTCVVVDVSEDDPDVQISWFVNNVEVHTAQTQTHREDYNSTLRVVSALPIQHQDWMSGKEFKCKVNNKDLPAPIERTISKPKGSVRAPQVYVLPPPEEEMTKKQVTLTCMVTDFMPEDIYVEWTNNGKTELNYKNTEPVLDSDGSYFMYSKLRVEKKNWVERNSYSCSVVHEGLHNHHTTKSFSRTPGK

[7] = target: human CD137 ECD-mIgG2a (human); assay: SPR, antibody captured on anti-human IgG Fc chip, human CD137 ECD-mIgG2a flowed over
[8] = target: T3, TNFRSF7(CD27) (UniProt P26842 21-192, limits assumed); assay: antigen ELISA, receptor coated at 10 ug/ml, detection with HRP anti-human IgG
T3 construct: Bought protein
T3 sequence (looked up): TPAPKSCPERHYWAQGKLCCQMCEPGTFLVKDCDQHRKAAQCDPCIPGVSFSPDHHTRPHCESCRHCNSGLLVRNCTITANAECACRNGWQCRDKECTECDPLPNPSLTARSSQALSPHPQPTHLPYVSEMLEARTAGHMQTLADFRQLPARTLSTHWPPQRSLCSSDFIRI

[9] = target: T4, TNFRSF18(GITR) (UniProt Q9Y5U5 26-161, limits assumed); assay: as above
T4 construct: Bought protein
T4 sequence (looked up): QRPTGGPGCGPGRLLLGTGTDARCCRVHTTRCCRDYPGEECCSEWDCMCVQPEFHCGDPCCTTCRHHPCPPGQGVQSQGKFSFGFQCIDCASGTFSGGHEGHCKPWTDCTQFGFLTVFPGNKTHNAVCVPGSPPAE

[10] = target: T5, human OX40 ECD (human, UniProt P43489 29-216); assay: as above
T5 construct: also called TNFRSF4(OX40); huOX40
T5 sequence: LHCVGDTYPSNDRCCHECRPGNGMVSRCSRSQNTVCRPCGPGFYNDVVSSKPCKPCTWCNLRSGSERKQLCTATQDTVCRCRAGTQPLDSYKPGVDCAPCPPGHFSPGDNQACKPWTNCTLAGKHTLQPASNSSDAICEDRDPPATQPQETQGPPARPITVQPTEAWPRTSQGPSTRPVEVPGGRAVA

[11] = target: T6, human CD40 ECD (human, UniProt P25942 part only); assay: as above
T6 construct: also called TNFRSF5(CD40); huCD40
T6 sequence (P25942 21-194 limits assumed): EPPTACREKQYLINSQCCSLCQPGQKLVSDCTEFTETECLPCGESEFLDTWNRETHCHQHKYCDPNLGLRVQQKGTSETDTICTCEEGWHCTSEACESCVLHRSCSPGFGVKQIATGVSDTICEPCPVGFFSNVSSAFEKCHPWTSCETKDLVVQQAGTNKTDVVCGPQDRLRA

[12] = target: T7, TNFRSF1A(CD120a) (UniProt P19438 22-211, limits assumed); assay: as above
T7 construct: Bought protein
T7 sequence (looked up): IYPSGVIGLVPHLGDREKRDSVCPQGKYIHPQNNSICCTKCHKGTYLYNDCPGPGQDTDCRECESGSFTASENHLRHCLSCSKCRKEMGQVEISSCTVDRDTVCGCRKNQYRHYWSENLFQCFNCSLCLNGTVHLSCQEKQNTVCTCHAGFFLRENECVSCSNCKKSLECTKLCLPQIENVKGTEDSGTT

[13] = target: T8, TNFRSF1B(CD120b) (UniProt P20333 23-257); assay: as above
T8 construct: Bought protein
T8 sequence (looked up): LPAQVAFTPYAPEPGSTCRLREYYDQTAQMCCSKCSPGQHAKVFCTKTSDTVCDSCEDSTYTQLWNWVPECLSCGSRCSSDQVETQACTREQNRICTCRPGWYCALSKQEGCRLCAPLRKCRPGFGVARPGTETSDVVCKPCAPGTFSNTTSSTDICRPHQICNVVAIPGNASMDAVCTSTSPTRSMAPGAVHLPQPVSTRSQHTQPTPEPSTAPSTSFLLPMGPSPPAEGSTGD

B1: BGA-4712 (VH-Fc) (Fc fusion)
chain: EVQLLESGGGLVQPGGSLRLSCAASGFMLSAEDVGWVRQAPGKGLEWVSAILDFGGSTYYADSVKGRFTISRDNSKNTLYLQMNSLRAEDTAVYYCARVVYHAGGGVTFDYWGQGTLVTVSSGGGGS[human IgG1 Fc not shown]
EC50 [1]: 2.97 mg/L
Kd [2]: 0.0364 µM
koff [2]: 0.000794 s⁻¹
kon [2]: 21800 M⁻¹ s⁻¹

B2: BGA-9468-mutFc (Fc fusion)
chain: B1 chain with M28T, L29V, F54S, D62E, S75A, N84S, A103S, Y111L, W112R, L117Q
Kd [3]: 0.19 µM

B7: BGA-7746-mutFc (Fc fusion)
chain: B1 chain with M28T, L29V, D62E, S75A, N84S, Y111T, W112R, L117Q
Kd [3]: 0.193 µM

B8: BGA-4988-mutFc (Fc fusion)
chain: B1 chain with M28T, L29V, F54R, D62E, S75A, N84S, F109Y, Y111T, W112R, L117Q
Kd [3]: 1.03 µM

B9: BGA-7556-mutFc (Fc fusion)
chain: B1 chain with M28T, D62E, S75A, N84S, W112R, L117Q
notes: also called BGA-7556 (Fc fusion VH)
Kd [4]: 0.2 µM
EC50 [5]: 5.71 mg/L
Kd [3]: 0.2 µM

B14: BGA-5623 (IgG1) (Fc fusion)
chain: EVQLLESGGGLVQPGGSLRLSCAASGFTVSAEDVGWVRQAPGKGLEWVSAILDKGGSTYYAESVKGRFTISRDNAKNTLYLQMSSLRAEDTAVYYCARIVYHAGGGVTFDTRGQGTQVTVSS[human IgG1 Fc with changes not shown]
Kd [6]: 0.0122 µM
koff [6]: 0.00197 s⁻¹
kon [6]: 162000 M⁻¹ s⁻¹
Kd [7]: 0.0794 µM
koff [7]: 0.00322 s⁻¹
kon [7]: 40500 M⁻¹ s⁻¹
binding result [8]: no binding
binding result [9]: no binding
binding result [10]: no binding
binding result [11]: no binding
binding result [12]: no binding
binding result [13]: no binding

More lines, now with the values ahead:

Kd [4]: 0.169 µM
EC50 [5]: 2.37 mg/L
Kd [3]: 0.169 µM
B3: BGA-4712-M3-mutFc (Fc fusion)
chain: B1 chain with M28T, D62E, S75A, N84S

Kd [3]: 0.0503 µM
B4: BGA-5623-mutFc (Fc fusion)
chain: B1 chain with M28T, L29V, F54K, D62E, S75A, N84S, V99I, Y111T, W112R, L117Q
notes: also called Fc fusion VH Ab

Kd [3]: 0.186 µM
B5: BGA-3285-mutFc (Fc fusion)
chain: B1 chain with M28T, L29I, D62E, S75A, N84S, Y111T, W112R, L117Q

Kd [3]: 0.0934 µM
B6: BGA-8425-mutFc (Fc fusion)
chain: B1 chain with M28T, F54S, D62E, S75A, N84S, F109Y, W112R, L117Q

Kd [3]: 0.0877 µM
B10: BGA-7916-mutFc (Fc fusion)
chain: B1 chain with M28T, L29V, F54S, D62E, S75A, N84S, F109Y, Y111T, W112R, L117Q

Kd [3]: 0.0763 µM
B11: BGA-3849-mutFc (Fc fusion)
chain: B1 chain with M28T, A31H, F54S, D62E, S75A, N84S, V99Y, Y111T, W112R, L117Q

Kd [3]: 0.151 µM
B12: BGA-9442-mutFc (Fc fusion)
chain: B1 chain with M28T, L29I, F54S, D62E, S75A, N84S, V99Y, Y111L, W112R, L117Q

Kd [3]: 0.0483 µM
B13: BGA-3953-mutFc (Fc fusion)
chain: B1 chain with M28T, L29V, F54S, D62E, S75A, N84S, V99I, Y111T, W112R, L117Q

Substitutions are numbered along the chain they refer to. One block for each binder: values may come before it.
